# Data reported in publication PMC9911399, “Two distinct binding modes provide the RNA-binding protein RbFox with extraordinary sequence specificity”.
# Substitutions are numbered along the chain they refer to; changes in the protein carry UniProt numbers. The list shows a part of the results.
# B1: GACUUAC (DNA:RNA)
# RNA: GGGAGACCGGAAUUCAGAUUGUCCGACUUACUUAAAUCCCGUCGUAGCCACCA
# DNA 1: CAATCTGAATTCCGGTCTCCC
# DNA 2: TGGTGGCTACGACGGGATT
# B2: CUCUCCU (DNA:RNA)
# RNA: B1 RNA with G25C, A26U, U29C, A30C, C31U
# DNA 1: CAATCTGAATTCCGGTCTCCC
# DNA 2: TGGTGGCTACGACGGGATT
# B3: GCCGCAG (DNA:RNA)
# RNA: B1 RNA with A26C, U28G, U29C, C31G
# DNA 1: CAATCTGAATTCCGGTCTCCC
# DNA 2: TGGTGGCTACGACGGGATT
# B4: CUUGGAC (DNA:RNA)
# RNA: B1 RNA with G25C, A26U, C27U, U28G, U29G
# DNA 1: CAATCTGAATTCCGGTCTCCC
# DNA 2: TGGTGGCTACGACGGGATT
# B5: CACACUG (DNA:RNA)
# RNA: B1 RNA with G25C, U28A, U29C, A30U, C31G
# DNA 1: CAATCTGAATTCCGGTCTCCC
# DNA 2: TGGTGGCTACGACGGGATT
# B6: CAGAACC (DNA:RNA)
# RNA: B1 RNA with G25C, C27G, U28A, U29A, A30C
# DNA 1: CAATCTGAATTCCGGTCTCCC
# DNA 2: TGGTGGCTACGACGGGATT
# B7: AGGUUAA (DNA:RNA)
# RNA: B1 RNA with G25A, A26G, C27G, C31A
# DNA 1: CAATCTGAATTCCGGTCTCCC
# DNA 2: TGGTGGCTACGACGGGATT
# B8: UACAUGC (DNA:RNA)
# RNA: B1 RNA with G25U, U28A, A30G
# DNA 1: CAATCTGAATTCCGGTCTCCC
# DNA 2: TGGTGGCTACGACGGGATT
# B9: UAGGCUA (DNA:RNA)
# RNA: B1 RNA with G25U, C27G, U28G, U29C, A30U, C31A
# DNA 1: CAATCTGAATTCCGGTCTCCC
# DNA 2: TGGTGGCTACGACGGGATT
# B10: AGCUGUA (DNA:RNA)
# RNA: B1 RNA with G25A, A26G, U29G, A30U, C31A
# DNA 1: CAATCTGAATTCCGGTCTCCC
# DNA 2: TGGTGGCTACGACGGGATT
# B11: UGUAGUU (DNA:RNA)
# RNA: GGGAGACCGGAAUUCAGAUUGUCCUGUAGUUUUAAAUCCCGUCGUAGCCACCA
# DNA 1: CAATCTGAATTCCGGTCTCCC
# DNA 2: TGGTGGCTACGACGGGATT
# B12: AACACAA (DNA:RNA)
# RNA: B1 RNA with G25A, U28A, U29C, C31A
# DNA 1: CAATCTGAATTCCGGTCTCCC
# DNA 2: TGGTGGCTACGACGGGATT
# B13: AUGCCUA (DNA:RNA)
# RNA: B11 RNA with U25A, G26U, U27G, A28C, G29C, U31A
# DNA 1: CAATCTGAATTCCGGTCTCCC
# DNA 2: TGGTGGCTACGACGGGATT
# B14: AUCGCAU (DNA:RNA)
# RNA: B1 RNA with G25A, A26U, U28G, U29C, C31U
# DNA 1: CAATCTGAATTCCGGTCTCCC
# DNA 2: TGGTGGCTACGACGGGATT
# B15: AUUCCUU (DNA:RNA)
# RNA: B11 RNA with U25A, G26U, A28C, G29C
# DNA 1: CAATCTGAATTCCGGTCTCCC
# DNA 2: TGGTGGCTACGACGGGATT
# B16: UUACGGC (DNA:RNA)
# RNA: B11 RNA with G26U, U27A, A28C, U30G, U31C
# DNA 1: CAATCTGAATTCCGGTCTCCC
# DNA 2: TGGTGGCTACGACGGGATT
# B17: UUUGCAC (DNA:RNA)
# RNA: B1 RNA with G25U, A26U, C27U, U28G, U29C
# DNA 1: CAATCTGAATTCCGGTCTCCC
# DNA 2: TGGTGGCTACGACGGGATT
# B18: ACGACAG (DNA:RNA)
# RNA: B1 RNA with G25A, A26C, C27G, U28A, U29C, C31G
# DNA 1: CAATCTGAATTCCGGTCTCCC
# DNA 2: TGGTGGCTACGACGGGATT
# B19: AUGACUC (DNA:RNA)
# RNA: B11 RNA with U25A, G26U, U27G, G29C, U31C
# DNA 1: CAATCTGAATTCCGGTCTCCC
# DNA 2: TGGTGGCTACGACGGGATT
# B20: UUCUUAG (DNA:RNA)
# RNA: B1 RNA with G25U, A26U, C31G
# DNA 1: CAATCTGAATTCCGGTCTCCC
# DNA 2: TGGTGGCTACGACGGGATT
# B21: AUACCAC (DNA:RNA)
# RNA: B1 RNA with G25A, A26U, C27A, U28C, U29C
# DNA 1: CAATCTGAATTCCGGTCTCCC
# DNA 2: TGGTGGCTACGACGGGATT
# B22: CGUACAA (DNA:RNA)
# RNA: B11 RNA with U25C, G29C, U30A, U31A
# DNA 1: CAATCTGAATTCCGGTCTCCC
# DNA 2: TGGTGGCTACGACGGGATT
# B23: CAGAACG (DNA:RNA)
# RNA: B1 RNA with G25C, C27G, U28A, U29A, A30C, C31G
# DNA 1: CAATCTGAATTCCGGTCTCCC
# DNA 2: TGGTGGCTACGACGGGATT
# B24: UCCGGUA (DNA:RNA)
# RNA: B11 RNA with G26C, U27C, A28G, U31A
# DNA 1: CAATCTGAATTCCGGTCTCCC
# DNA 2: TGGTGGCTACGACGGGATT
# B25: AAUACUC (DNA:RNA)
# RNA: B11 RNA with U25A, G26A, G29C, U31C
# DNA 1: CAATCTGAATTCCGGTCTCCC
# DNA 2: TGGTGGCTACGACGGGATT
# B26: UCAGCGU (DNA:RNA)
# RNA: B11 RNA with G26C, U27A, A28G, G29C, U30G
# DNA 1: CAATCTGAATTCCGGTCTCCC
# DNA 2: TGGTGGCTACGACGGGATT
# B27: GUAUUAA (DNA:RNA)
# RNA: B1 RNA with A26U, C27A, C31A
# DNA 1: CAATCTGAATTCCGGTCTCCC
# DNA 2: TGGTGGCTACGACGGGATT
# B28: CCUCUUU (DNA:RNA)
# RNA: B11 RNA with U25C, G26C, A28C, G29U
# DNA 1: CAATCTGAATTCCGGTCTCCC
# DNA 2: TGGTGGCTACGACGGGATT
# B29: GGCAGCA (DNA:RNA)
# RNA: B11 RNA with U25G, U27C, U30C, U31A
# DNA 1: CAATCTGAATTCCGGTCTCCC
# DNA 2: TGGTGGCTACGACGGGATT
# B30: GAAUUGC (DNA:RNA)
# RNA: B1 RNA with C27A, A30G
# DNA 1: CAATCTGAATTCCGGTCTCCC
# DNA 2: TGGTGGCTACGACGGGATT
# B31: GUCACGA (DNA:RNA)
# RNA: B1 RNA with A26U, U28A, U29C, A30G, C31A
# DNA 1: CAATCTGAATTCCGGTCTCCC
# DNA 2: TGGTGGCTACGACGGGATT
# Target: T1, RBFOX1 RRM (Homo sapiens, UniProt Q9NWB1 109-208)
# T1 sequence: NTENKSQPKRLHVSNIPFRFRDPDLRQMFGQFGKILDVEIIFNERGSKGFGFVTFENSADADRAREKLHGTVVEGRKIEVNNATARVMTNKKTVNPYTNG
# Test: EMSA; HiTS-Eq, 1 nM pool, 10 min; buffer printed only for the single-RNA assays: 10 mM Tris pH 7.5, 150 mM NaCl, 3.4 mM EDTA, 0.001% NP-40, 30 C
# Conditions: tags: His6 N-terminal (pET28a); label: 5' 32P
# How it was run: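 These values rest on relative association constants, computed from read-count changes of each RNA species versus the control reaction and normalised to the cognate motif. Reads came from free RNA recovered by 8% native PAGE after purified RbFox RRM (wild type or mutant) at increasing concentrations was equilibrated for 10 min in 50 µL with 1 nM of a 5′-radiolabelled pool with 7 randomized nucleotides and DNA-annealed flanks.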
row,Binder,binding signal
1,B1,0.00749 KA relative to UGCAUGU
2,B2,0.00431 KA relative to UGCAUGU
3,B3,0.0109 KA relative to UGCAUGU
4,B4,0.00562 KA relative to UGCAUGU
5,B5,0.00466 KA relative to UGCAUGU
6,B6,0.00361 KA relative to UGCAUGU
7,B7,0.00451 KA relative to UGCAUGU
8,B8,0.0112 KA relative to UGCAUGU
9,B9,0.0122 KA relative to UGCAUGU
10,B10,0.00783 KA relative to UGCAUGU
11,B11,0.0111 KA relative to UGCAUGU
12,B12,0.00155 KA relative to UGCAUGU
13,B13,0.00728 KA relative to UGCAUGU
14,B14,0.00791 KA relative to UGCAUGU
15,B15,0.00315 KA relative to UGCAUGU
16,B16,0.00771 KA relative to UGCAUGU

row,Binder,binding signal
1,B17,0.0223 KA relative to UGCAUGU
2,B18,0.00464 KA relative to UGCAUGU
3,B19,0.0107 KA relative to UGCAUGU
4,B20,0.00996 KA relative to UGCAUGU
5,B21,0.00168 KA relative to UGCAUGU
6,B22,0.00407 KA relative to UGCAUGU
7,B23,0.00737 KA relative to UGCAUGU
8,B24,0.00405 KA relative to UGCAUGU
9,B25,0.00125 KA relative to UGCAUGU
10,B26,0.0131 KA relative to UGCAUGU
11,B27,0.00181 KA relative to UGCAUGU
12,B28,0.00522 KA relative to UGCAUGU
13,B29,0.0104 KA relative to UGCAUGU
14,B30,0.0117 KA relative to UGCAUGU
15,B31,0.0123 KA relative to UGCAUGU
